PubChem BioAssay AID686978 (National Center for Advancing Translational Sciences (NCATS), 2013)
Out of some 420,000 compounds screened, about 64,000 (15%) were called active. The inconclusive results got no clear call from the source; some entries with a clear call stand among them for comparison. Calls follow the shape of the dose curve; as a rule, active = well fitted inhibition curve with a large enough effect; inconclusive = small, poorly fitted or top-dose-only effect; inactive = flat fitted curve, though single readings scatter. No potency is given beside an inconclusive call; the fits are too rough.
% is scaled to controls: 0 for no effect and ±100 for the full control effect; potency is read from the fitted curve at half-maximal effect; tags tell the direction and shape of the fitted curve.

Assay: qHTS for Inhibitors of human tyrosyl-DNA phosphodiesterase 1 (TDP1): qHTS in cells in absence of CPT; also: nearly all actives have a fitted effect of over 55% in size
Conditions: DT40 Tdp1-/- hTDP1 cells, no CPT, ATP luminescence, 48 h; activity change, negative = growth inhibition: at 46.2 µM (top of the series) unless noted
How it was run: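 No-CPT arm: Tdp1-/-;hTDP1 DT40 cells (400/well) plus compounds, incubated ≥48 hr at 37 °C. Readout CellTiter-Glo luminescence.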
In the case of `CCN(C(=O)COC(=O)CCOc1cc(C)ccc1C)c1c(N)n(Cc2ccccc2)c(=O)[nH]c1=O`, the Potency is reported as inconclusive [inhibitor, single point]. With `Cc1c(Cl)cccc1NC(=O)Cn1nc(C)n2cccc2c1=O` the Potency was “inactive”. For `CCOc1cccc(C(=O)Nc2ccc(N(CC)CC)cc2)c1`, the Potency was inconclusive [inhibitor, single point]. For `Cc1cc2c(cc1[N+](=O)[O-])NC(CNC(C)C)CC2` (configuration not stated), the activity change, negative = growth inhibition was inconclusive: -31.4% [inhibitor]. In the case of `Cc1cc(N2CCOCC2)ccc1/C=C1\NC(=O)N(Cc2ccccc2)C1=O`, the Potency is reported as inconclusive [inhibitor, single point]. In the case of `O=C(C[C@H]1C[C@H](C(=O)N2CCOCC2)[C@@]2(CCC3CCCC3)c3[nH]c4cc(-c5ccco5)ccc4c3CCN2C1=O)NCCc1ccccn1`, the Potency is reported as inconclusive [inhibitor, single point]. With `CCOC(=O)c1ccc2ncc(-c3ccccc3)nc2c1` the Potency was “inactive”. With `CCCCNC(=O)c1ccccc1NC(=O)c1ccc2c(c1)OCO2` the Potency was inconclusive [inhibitor, single point]. With `O=c1oc2ccc3ccccc3c2cc1-c1nc2ccccc2o1` the Potency was inconclusive [inhibitor, single point]. In the case of `CC(C)C[C@H]1CN(CCCC[C@@H]2CNC(=O)C(=O)N2CCc2ccccc2)C(=O)C(=O)N1CCC1CCCCC1`, the Potency is reported as inconclusive [inhibitor, single point]. In the case of `O=C(NCC(c1ccco1)N1CCN(c2ccc(F)cc2)CC1)c1cccs1` (configuration not stated), the Potency is reported as inconclusive [inhibitor, single point]. For `COc1cc(-c2nnc(NC(=O)CCS(=O)(=O)c3ccccc3)o2)cc(OC)c1OC`, the Potency was active: 14.6 µM. In the case of `CC(C)C[C@H]1CN([C@@H](Cc2ccc(O)cc2)CN2CCCC2CN2C(=S)NC[C@@H]2Cc2ccccc2)C(=S)N1CC1CCCCC1` (some centres not stated), the Potency is reported as active: 14.6 µM. With `CCc1cc(C(=O)N2CCCC(C(=O)c3cccc4ccccc34)C2)n(C)n1` (configuration not stated) the Potency was active: 14.6 µM. With `Cn1nc(C(C)(C)C)cc1N1C(=O)CCC1(C)C(=O)Nc1ccc2ccccc2c1` (configuration not stated) the Potency was inconclusive [inhibitor, single point]. In the case of `Cc1ccc(NC(=O)CSCC(=O)Nc2ccccc2N2CCCC2)cc1`, the Potency is reported as inconclusive [inhibitor, partial curve]. For `COc1ccc(NC(=O)C2CCN(S(=O)(=O)c3ccc4c(c3)CC(C)N4C(C)=O)CC2)c(OC)c1` (configuration not stated), the Potency was inconclusive [inhibitor, single point]. For `O=C(c1cccs1)c1cn(CCOc2ccc(F)cc2)c2ccccc12`, the Potency was active: 20.6 µM. In the case of `COc1ccc(C(=O)C[n+]2ccc(N(C)C)cc2)cc1`, the Potency is reported as active: 16.4 µM. In the case of `CC1CC(C)CN(C(=O)c2ccc3c(c2)OCCO3)C1` (configuration not stated), the Potency is reported as inconclusive [inhibitor, partial curve, poor fit]. In the case of `COc1ccc(-c2csc(=Nc3ccccc3)n2CCO)cc1`, the Potency is reported as inconclusive [inhibitor, single point]. In the case of `O=C(CNC(=O)c1ccc(S(=O)(=O)N2CCCC2)cc1)N/N=C/c1ccco1`, the Potency is reported as inconclusive [inhibitor, single point]. In the case of `COc1ccc(CNS(=O)(=O)c2ccc(N3CCCC3)cc2Br)cc1`, the Potency is reported as inconclusive [inhibitor, single point]. For `C/C=C(/C)C(=O)O[C@@H]1[C@H](OC(=O)C=C(C)C)c2c(ccc3ccc(=O)oc23)OC1(C)C`, the Potency was inconclusive [inhibitor, single point]. With `CCOC(=O)c1c(C)[nH]c(C)c1S(=O)(=O)NCC(=O)Nc1ccc(CC)cc1` the Potency was “inactive”. For `COc1cccc(C(C(=O)NC2CCCCC2)N(C(=O)c2cccs2)c2ccc3c(c2)OCO3)c1` (configuration not stated), the Potency was inconclusive [inhibitor, single point]. For `O=[N+]([O-])c1cccc(COc2ccccc2CN2CCCCC2)c1`, the Potency was inconclusive [inhibitor, single point]. With `Cc1cccc(NC(=O)CC2S/C(=N/c3nccs3)N(C)C2=O)c1` (configuration not stated) the Potency was “inactive”. With `CC1CCN(S(=O)(=O)c2cnc(Cl)c(Br)c2)CC1` the Potency was “inactive”. For `CC(=O)c1ccc(OCCCC(=O)N(CCC2=CCCCC2)c2c(N)n(Cc3ccccc3)c(=O)[nH]c2=O)cc1`, the Potency was “inactive”. With `Cc1ccc(S(=O)(=O)N2CCCC2C(=O)NCCc2nc3ccccc3[nH]2)cc1` (configuration not stated) the Potency was inconclusive [inhibitor, single point]. With `CN(Cc1ccc(Cl)cc1)C(=O)c1cc(S(=O)(=O)N2CCOCC2)ccc1N1CCCC1` the Potency was inconclusive [inhibitor, partial curve]. With `Cc1ccc(NC(=O)Cn2sc3nc(C)cc(C)c3c2=O)c(Cl)c1` the Potency was active: 2.91 µM. For `COc1ccc(CCNC(=O)C(=O)NCC2OCCN2S(=O)(=O)c2ccc(OC)c(OC)c2)cc1OC` (configuration not stated), the Potency was inconclusive [inhibitor, single point]. With `CCN(CCCNC(=O)c1cn(CC)c2ccc(S(=O)(=O)N(C)C)cc2c1=O)c1cccc(C)c1` the Potency was inconclusive [inhibitor, single point]. In the case of `Cc1ccc(-c2ccc(CN3C(CC(C)C)C(=O)N(Cc4cn(CCC5OCCO5)nn4)CCS3(=O)=O)cc2)cc1` (configuration not stated), the Potency is reported as active: 13 µM. For `OCCC1CN(CC#Cc2ccccc2)CCN1Cc1ccccc1F` (configuration not stated), the Potency was inconclusive [inhibitor, single point]. For `Cc1ccc(-c2nc(S(=O)(=O)c3ccccc3)c(SCC(=O)NCC3CCCO3)o2)cc1` (configuration not stated), the Potency was active: 23.1 µM. For `O=C(Cn1cnc2onc(-c3ccc(F)cc3)c2c1=O)N1CCN(c2ccccc2F)CC1`, the Potency was inconclusive [inhibitor, single point]. In the case of `COc1ccc(-c2c3c(=O)n(C)c(=O)n(C)c3cn2-c2ccccc2)cc1`, the Potency is reported as active: 13 µM. With `O=C(CN(Cc1ccc(Cl)cc1)C(=O)CNS(=O)(=O)c1ccc(F)cc1)NCC1CCCO1` (configuration not stated) the Potency was “inactive”. In the case of `Cc1ccccc1NC(=O)CC1SC(=Nc2ccc(O)cc2)NC1=O` (configuration not stated), the Potency is reported as “inactive”.
